Assay results taken from paper PMC13065467, “Assembly and phosphoregulatory mechanisms of the budding yeast outer kinetochore KMN complex” (The Journal of Cell Biology, 2026).
Results are given in words; binding and its absence hold for the method and conditions named. For some of these results: Binding seen in cells or lysates may run through a third protein. Some entries that bind do so weakly or less than the wild type.

Columns and labels:
[1] = molecular target: T1, Dsn1 (subunit of Mis12c^Mtw1c, as in K^HB-RWDM) (S. cerevisiae) (UniProt P40568); assay: cross-linking; sulfo-SDA (2 mM), 365-nm UV for 10 s, on the K^HB-RWDM complex (0.5 mg/ml); mass spectrometry (CL-MS); both purified
T1 sequence: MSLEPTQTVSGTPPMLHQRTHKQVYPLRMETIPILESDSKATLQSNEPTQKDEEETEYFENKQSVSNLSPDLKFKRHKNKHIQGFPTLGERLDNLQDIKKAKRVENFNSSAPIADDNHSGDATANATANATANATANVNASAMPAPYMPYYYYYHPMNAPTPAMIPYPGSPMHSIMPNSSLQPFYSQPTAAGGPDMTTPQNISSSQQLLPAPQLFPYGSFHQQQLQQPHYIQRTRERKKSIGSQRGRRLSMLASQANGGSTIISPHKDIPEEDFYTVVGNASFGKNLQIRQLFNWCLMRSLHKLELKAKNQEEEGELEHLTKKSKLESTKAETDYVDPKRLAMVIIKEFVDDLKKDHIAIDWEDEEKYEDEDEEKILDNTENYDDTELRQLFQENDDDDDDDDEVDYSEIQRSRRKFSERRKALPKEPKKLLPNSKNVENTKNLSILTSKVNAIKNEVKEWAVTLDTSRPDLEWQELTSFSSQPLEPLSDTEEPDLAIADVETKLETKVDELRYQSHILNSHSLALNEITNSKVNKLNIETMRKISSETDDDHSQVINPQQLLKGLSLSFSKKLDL

[2] = molecular target: T2, Nsl1 (subunit of Mis12c^Mtw1c, as in K^HB-RWDM) (S. cerevisiae) (UniProt Q12143); assay: as above
T2 sequence: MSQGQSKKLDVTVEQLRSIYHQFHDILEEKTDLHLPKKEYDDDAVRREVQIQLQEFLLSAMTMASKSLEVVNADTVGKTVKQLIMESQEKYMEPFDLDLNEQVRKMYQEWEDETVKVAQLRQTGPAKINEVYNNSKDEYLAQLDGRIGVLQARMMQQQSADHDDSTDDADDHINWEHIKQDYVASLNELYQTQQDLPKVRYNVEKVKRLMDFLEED

[3] = molecular target: T3, K^RWD: Knl1c composed of Knl1^Spc105_RWD (residues 710–917) and ZWINT^Kre28_RWD (residues 268–385) (S. cerevisiae) (UniProt P53148+Q04431); assay: pull-down; K^RWD (ZWINT^Kre28_RWD with C-terminal Twin-Strep tag as bait) coexpressed with Mis12c^Mtw1c (Dsn1^Δ1–278) in High-5 cells; cleared lysate on Strep-Tactin resin, 50 mM HEPES pH 8.0, 200 mM NaCl, 5% glycerol, 4°C; eluted with d-desthiobiotin; SDS-PAGE
T3 sequence 1: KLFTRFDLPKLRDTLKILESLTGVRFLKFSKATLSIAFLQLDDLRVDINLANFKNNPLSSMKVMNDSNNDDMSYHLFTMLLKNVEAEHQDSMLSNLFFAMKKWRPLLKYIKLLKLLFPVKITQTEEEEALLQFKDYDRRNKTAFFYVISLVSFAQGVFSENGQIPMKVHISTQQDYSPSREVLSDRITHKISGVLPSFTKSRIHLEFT
T3 sequence 2: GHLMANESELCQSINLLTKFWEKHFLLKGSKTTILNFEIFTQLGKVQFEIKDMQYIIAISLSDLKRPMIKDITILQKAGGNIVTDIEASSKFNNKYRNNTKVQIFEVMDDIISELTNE

[4] = molecular target: Head 1–deleted Knl1c:Mis12c^Mtw1c complex K^HB-RWDM^Dsn1Δ257_Δhead1 (Knl1^Spc105 1–444, Dsn1 1–257, Mis12^Mtw1 1–106 and Nnf1 1–104 deleted) (S. cerevisiae) (UniProt P53148+Q04431+P40568+P39731+P47149+Q12143); assay: ITC; peptide titrated into the complex in the cell; 25°C; 25 mM HEPES pH 7.5, 100 mM NaCl, 1 mM TCEP; single-site model; both purified
[5] = molecular target: T4, Knl1c:Mis12c^Mtw1c complex K^HB-RWDM (Knl1^Spc105_HB-RWD, ZWINT^Kre28, Dsn1, Mis12^Mtw1, Nnf1, Nsl1) (S. cerevisiae) (UniProt P53148+Q04431+P40568+P39731+P47149+Q12143); assay: SEC; 4 μM Knl1c:Mis12c^Mtw1c complex mixed with 4 μM CENP-C^Mif2_1-63 or CENP-QU in KMN buffer, 30 min on ice; Superose 6 3.2/300 in 20 mM HEPES pH 7.5, 150 mM NaCl, 1 mM TCEP; fractions on SDS-PAGE; both purified
[6] = molecular target: Knl1c:Mis12c^Mtw1c complex K^HB-RWDM^Dsn1Δ226 (Dsn1 residues 1–226 deleted) (S. cerevisiae) (UniProt P53148+Q04431+P40568+P39731+P47149+Q12143); assay: as above
[7] = molecular target: T4, Knl1c:Mis12c^Mtw1c complex K^HB-RWDM (Knl1^Spc105_HB-RWD, ZWINT^Kre28, Dsn1, Mis12^Mtw1, Nnf1, Nsl1) (S. cerevisiae); assay: ITC; peptide titrated into the complex in the cell; 20°C; 25 mM HEPES pH 7.5, 100 mM NaCl, 0.5 mM TCEP; both purified

B1: Mis12^Mtw1 (subunit of Mis12c^Mtw1c, as in K^HB-RWDM) (protein, UniProt P39731 1-289)
chain: MSAPTMRSTSILTEHLGYPPISLVDDIINAVNEIMYKCTAAMEKYLLSKSKIGEEDYGEEIKSGVAKLESLLENSVDKNFDKLELYVLRNVLRIPEEYLDANVFRLENQKDLVIVDENELKKSEEKLREKVNDVELAFKKNEMLLKRVTKVKRLLFTIRGFKQKLNELLKCKDDVQLQKILESLKPIDDTMTLLTDSLRKLYVDSESTSSTEEVEALLQRLKTNGKQNNKDFRTRYIDIRTNNVLRKLGLLGDKEDEKQSAKPDARTQAGDIVSIDIEEPQLDLLDDVL
binding [1]: binds

B2: Dsn1 (subunit of Mis12c^Mtw1c, as in K^HB-RWDM) (protein, UniProt P40568 1-576)
chain: T1 sequence
binding [2]: binds

B3: Mis12c^Mtw1c with Dsn1^Δ1–278 (wild-type Mis12^Mtw1 and Nnf1), coexpressed with K^RWD (complex, UniProt P40568 279-576; Q12143 1-216; P39731 1-289; P47149 1-201)
chain 1: GNASFGKNLQIRQLFNWCLMRSLHKLELKAKNQEEEGELEHLTKKSKLESTKAETDYVDPKRLAMVIIKEFVDDLKKDHIAIDWEDEEKYEDEDEEKILDNTENYDDTELRQLFQENDDDDDDDDEVDYSEIQRSRRKFSERRKALPKEPKKLLPNSKNVENTKNLSILTSKVNAIKNEVKEWAVTLDTSRPDLEWQELTSFSSQPLEPLSDTEEPDLAIADVETKLETKVDELRYQSHILNSHSLALNEITNSKVNKLNIETMRKISSETDDDHSQVINPQQLLKGLSLSFSKKLDL
chain 2: T2 sequence
chain 3: B1 chain
chain 4: MVNSHGIRYIRLKQVFNRALDQSISKLQSWDKVSSCFPQYVNSKQGAINVANCQRQLTEFWTELCQREFKEIMEERNVEQKLNELDELILEAKERYTDRDQDEVNKGPAIDELSSKELVECHLYSQRMHAIHEIDERLAKVNEMNDQLAQELKDLETQVEVEKNEIGKMYDEYLGSHTDQPANVLLVQSLNDMVLELKENY
binding [3]: binds

B4: Mis12c^Mtw1c_Mis12ΔC with Dsn1^Δ1–278 (Mis12^Mtw1_Δ272-C), coexpressed with K^RWD (complex, UniProt P40568 279-576; Q12143 1-216; P39731 1-271; P47149 1-201)
chain 1: B3 chain 1
chain 2: T2 sequence
chain 3: MSAPTMRSTSILTEHLGYPPISLVDDIINAVNEIMYKCTAAMEKYLLSKSKIGEEDYGEEIKSGVAKLESLLENSVDKNFDKLELYVLRNVLRIPEEYLDANVFRLENQKDLVIVDENELKKSEEKLREKVNDVELAFKKNEMLLKRVTKVKRLLFTIRGFKQKLNELLKCKDDVQLQKILESLKPIDDTMTLLTDSLRKLYVDSESTSSTEEVEALLQRLKTNGKQNNKDFRTRYIDIRTNNVLRKLGLLGDKEDEKQSAKPDARTQAGD
chain 4: B3 chain 4
binding [3]: binds

B5: Mis12c^Mtw1c_Nnf1ΔC with Dsn1^Δ1–278 (Nnf1^Δ180-C), coexpressed with K^RWD (complex, UniProt P40568 279-576; Q12143 1-216; P39731 1-289; P47149 1-179)
chain 1: B3 chain 1
chain 2: T2 sequence
chain 3: B1 chain
chain 4: MVNSHGIRYIRLKQVFNRALDQSISKLQSWDKVSSCFPQYVNSKQGAINVANCQRQLTEFWTELCQREFKEIMEERNVEQKLNELDELILEAKERYTDRDQDEVNKGPAIDELSSKELVECHLYSQRMHAIHEIDERLAKVNEMNDQLAQELKDLETQVEVEKNEIGKMYDEYLGSHTD
binding [3]: binds

B6: Dsn1^228–254 peptide (peptide)
peptide: PHYIQRTRERKKSIGSQRGRRLSMLASGSAW
modifications: N-terminal acetylation; C-terminal amidation
binding [4]: no binding

B7: CENP-C^Mif2 residues 1–63 (CENP-C^Mif2_1–63) (domain or fragment, S. cerevisiae, UniProt P35201 1-63, looked up)
chain: MDYMKLGLKSRKTGIDVKQDIPKDEYSMENIDDFFKDDETSLISMRRKSRRKSSLFLPSTLNG
notes: CENP-C^Mif2, S. cerevisiae S288c, residues 1-63; source: E. coli BL-21 CodonPlus-RIL, purified (HisTrap, Ulp1 cleavage, reverse IMAC, Resource S, SEC); not shown: 6xHis-SUMO, N-terminal, cleaved
binding [5]: no binding (tested: 4 μM of each) | binding [6]: no binding (tested: 4 μM of each)

B8: CENP-C^Mif2_1–38 peptide (N-terminal 38 residues of CENP-C^Mif2) (peptide)
peptide: MDYMKLGLKSRKTGIDVKQDIPKDEYSMENIDDFFKDD
modifications: C-terminal amide
binding [7]: no binding

B9: CENP-U^Ame1_1–33 peptide (residues 1–33 of CENP-U^Ame1) (peptide)
peptide: MDRDTKLAFRLRGSHSRRTDDIDDDVIVFKTPNW
modifications: C-terminal amide
binding [7]: no binding (tested: 16 μM K^HB-RWDM, 400 μM CENP-U^Ame1_1–33)
